# Source: publication PMC6212790
# Some of the results follow. At the low end of the ranking, values are background and their order means little.
# Target: T1, GST-Rok-C97-191 (UniProt O34857)
# T1 sequence: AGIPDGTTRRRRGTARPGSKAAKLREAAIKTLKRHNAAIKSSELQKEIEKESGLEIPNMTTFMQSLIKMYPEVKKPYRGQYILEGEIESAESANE
# Assay: protein binding microarray;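 note: rank score from −0.5 (least bound) to 0.5 (best bound)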
# Settings: Rok is a gene silencer of Bacillus subtilis; high values mean tight binding; most listed sequences are background and not binding sites; double strand, one strand shown
row,Sequence,binding signal [E-score]
1,GATAATGC,0.218
2,GACTCAGA,-0.0868
3,AGGTGGAG,-0.3
4,CTTTGTTA,0.0672
5,ACAACATA,0.128
6,AGCTAGAA,0.322
7,AGTCCCTG,-0.309
8,ATCCGGGG,-0.204
9,GCCCTCTA,-0.203
10,CCATTGGA,-0.127
11,ATCGTTGG,-0.115
12,AGGGACCT,-0.14
13,CAGAGTTA,-0.00404
14,CCTGCACG,0.0392
15,AAGTGGCC,-0.135
16,CAGGTTGC,-0.21
17,CAATACTA,0.217
18,ATCCCGGA,-0.094
19,TAGCAGCA,-0.033
20,AAGAACCA,0.0725
21,TCTCGACA,-0.0136
22,GTAGTACA,0.272
23,AACTTCAC,-0.0796
24,AGATTGTG,0.09
25,CTTATGGC,-0.0994

row,Sequence,binding signal [E-score]
1,TCACACCA,0.00467
2,GACAACTC,-0.0886
3,CATGCTAC,0.125
4,ATCCTTGC,-0.136
5,CCTAGGGC,-0.225
6,ATATTAGC,0.316
7,GTCATGAC,-0.101
8,TATCTGCA,0.0819
9,GTTCAACA,0.0437
10,CTTACGTC,-0.00655
11,GTCCTAGA,-0.199
12,AGTCCCGA,-0.25
13,ATTCTTTA,0.162
14,CGTACAAC,0.0132
15,ATTATGTC,0.00895
16,CGGCTGTC,-0.357
17,GTTTGGAA,0.176
18,GAAGACTA,0.107
19,CACTTTAC,0.0431
20,AGTAATAA,0.238
21,AGCCAGAG,-0.31
22,ACTCCTAG,0.023
23,CCCATGCC,-0.0926
24,ATAGTGCA,-0.145
25,CTAAGACC,-0.137

row,Sequence,binding signal [E-score]
1,ATATGTTG,0.084
2,CTATTAAG,0.122
3,CAACTTGG,-0.0938
4,CTATTAAA,0.0376
5,GGCACCAA,-0.188
6,CCGCCTAG,-0.149
7,ATGTGGAA,0.0307
8,CGACTTAC,0.143
9,CAAGACCA,-0.0856
10,GCAAACCA,-0.0828
11,AAAAGCTA,0.124
12,CTTGCGTA,0.0155
13,CTCAGTAA,0.00185
14,ATCTGGGA,-0.128
15,ATTTAATA,0.214
16,CTCATCAC,-0.017
17,ACTGTAAA,0.156
18,ATGTACAG,0.317
19,CTTACAAA,-0.00564
20,GAGACTGC,-0.193
21,AAAACGGG,-0.0383
22,CTTCAAGC,-0.141
23,CGCCGTGC,-0.194
24,GCATCGCA,-0.146
25,GCCCTAGC,-0.171

row,Sequence,binding signal [E-score]
1,AGTTCTGA,0.203
2,CATCAGTA,0.0127
3,ACAACGTG,-0.0914
4,CCTTCTAC,0.235
5,AGCTCGCC,-0.204
6,CGCTTGAA,-0.051
7,GAACACAC,-0.143
8,GGCACCGA,-0.423
9,ACATACTA,0.305
10,AATGGGGT,-0.00667
11,TAAAGAAA,0.0107
12,GCGTGAGC,-0.312
13,CTCATGTA,0.135
14,AACGAGGT,-0.12
15,AGCACCCT,0.0686
16,ACTTCAAA,0.0987
17,CACTTTCA,-0.0558
18,CGAAACTA,0.425
19,GGAGGCAC,-0.0636
20,GAACACGA,0.0227
21,CAATTCCC,0.0632
22,ATCATCCG,-0.0673
23,AGATTTTA,0.299
24,CGCGCGCG,-0.0372
25,CGCCGAAC,-0.0774

row,Sequence,binding signal [E-score]
1,ATGCTTCG,0.014
2,AACAGTTA,0.204
3,GCCGTAAC,0.0479
4,CCAGCCGC,-0.263
5,ATGACTAC,0.145
6,TGCACCAA,0.0482
7,CCATGCAC,-0.183
8,CTGTGTAC,0.0804
9,CAAGTATA,0.251
10,ACAGTAAA,0.251
11,AGGCTACC,-0.187
12,ACTAGTAA,0.423
13,AGCAGCAG,-0.148
14,ATCTTCAC,0.111
15,CCTGCGCG,-0.0904
16,GGTCGTGA,-0.175
17,CGGAATTC,0.0787
18,ACCGTTAT,0.165
19,AGATCGAG,-0.0213
20,CAACGGTG,-0.203
21,AACATGAG,-0.00961
22,ACTCGGAC,-0.176
23,GAGGAAAC,-0.161
24,ATGGTACG,0.137
25,ACGGTATC,0.0548

row,Sequence,binding signal [E-score]
1,ATGACACC,-0.0746
2,AGGCCCCG,-0.383
3,TGAGCCAA,-0.216
4,AAAGGTTA,-0.115
5,CTGGCTTA,-0.0809
6,AGTGCCCC,-0.302
7,AGACTTAC,-0.0408
8,AAGCGCAA,-0.015
9,AGAGGTGC,-0.216
10,CCACCCTA,0.0328
11,AGCCGGGC,-0.295
12,ACCAGGAG,-0.064
13,CCTCCAAG,-0.281
14,GTAAAAAA,0.246
15,ACCCATTC,-0.031
16,GCGCAGAA,0.00407
17,AAGATGGT,-0.0403
18,CTGACTCA,-0.13
19,ATTAGTGG,0.187
20,TCAGATGA,-0.0424
21,AAGACTGA,-0.0203
22,ATGCCCGC,-0.112
23,AGCAGCCT,-0.144
24,CAACTCAC,0.0168
25,CTTGGGCC,-0.329

row,Sequence,binding signal [E-score]
1,AGATTAAG,0.053
2,ATAGCAGA,-0.0016
3,CCATGCAG,-0.143
4,CAATAGGA,0.00492
5,CACCCCTA,-0.16
6,CGGAAGGC,-0.346
7,GTACCCAC,0.0317
8,TAATTAGA,0.324
9,TAAGAGAA,0.209
10,CGTTAGAG,-0.0338
11,CCAGCCAA,-0.174
12,AATGCGTG,-0.0174
13,ACTTACCC,-0.202
14,AGACCGCG,-0.192
15,GTCCAGAA,-0.0181
16,AACGCCAT,0.0575
17,AATTAATT,0.327
18,CTATAGGA,0.0674
19,CCGTCCGC,-0.179
20,ACCTACGG,0.13
21,CCGGTAAG,0.013
22,GCTAACCC,-0.0526
